Laboratory results from PubChem BioAssay AID686979 (National Center for Advancing Translational Sciences (NCATS), 2013).
“And” between values parts separate entries of the source, which are not always exact repeats. Equal values may be shown once. About 50,000 (12%) of roughly 420,000 compounds were called active. The shares of active, inactive and inconclusive entries below differ from those in the screen. Calls follow the shape of the dose curve; as a rule, active = well fitted inhibition curve with a large enough effect; inconclusive = small, poorly fitted or top-dose-only effect; inactive = flat fitted curve, though single readings scatter. A potency beside an inconclusive call is a rough fit, not a confirmed value.

Experiment: qHTS for Inhibitors of human tyrosyl-DNA phosphodiesterase 1 (TDP1): qHTS in cells in presence of CPT; also: nearly all actives have a fitted effect of over 55% in size
Settings: chicken DT40 Tdp1-/-;hTDP1 cells + 20 nM CPT, ATP luminescence, 48 h; activity change, negative = growth inhibition: at 46.2 µM (top of the series) unless noted
Summary of the method: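 Chicken DT40 Tdp1-/- cells stably complemented with human TDP1 were seeded at 400 cells/well in medium containing 20 nM camptothecin, exposed to pin-transferred compounds, and grown at 37 °C for at least 48 hr. Viability was read as ATP luminescence.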
% is scaled to controls: 0 for no effect and ±100 for the full control effect; potency is read from the fitted curve at half-maximal effect; tags tell the direction and shape of the fitted curve.

Row | SMILES | Potency | activity change, negative = growth inhibition
1 | O=C(COc1ccccc1)Nc1nc(-c2ccncc2)cs1 | active: 20.6 µM | –
2 | CC(C)CNC(=O)c1c(F)c(F)c(F)c(F)c1F | – | inactive: -6.78%
3 | COc1c(CC=C(C)C)cc(C2CC(=O)c3c(O)cc(O)cc3O2)cc1CC=C(C)C (centres undefined) | inconclusive: 29.1 µM [inhibitor, single point] | –
4 | CCc1ccc(-c2nc(CN3CCCC(C(=O)NCCc4ccc(OC)c(OC)c4)C3)c(C)o2)cc1 (centres undefined) | active: 23.1 µM | –
5 | CCOc1ccccc1C1NC(=O)NC(C)=C1C(=O)OC1CCCCC1 (centres undefined) | inconclusive: 29.1 µM [inhibitor, single point] | –
6 | CC(=O)N1c2ccc(S(=O)(=O)N(C)CC(=O)NC3CCCC3)cc2CC1C (centres undefined) | inconclusive: 8.2 µM [inhibitor, partial curve] | –
7 | c1ccc(CN=C2NN=C(c3ccccc3)CS2)cc1 | inconclusive: 29.1 µM [inhibitor, single point] | –
8 | Nc1nc(SCc2nc3scc(-c4cccs4)c3c(=O)[nH]2)n[nH]1 | inconclusive: 8.2 µM [inhibitor, partial curve] | –
9 | O=C(Nc1cccc(Cl)c1)Nc1nnc([C@@H]2C[C@H](O)[C@@H](CO)O2)s1 | inconclusive: 14.6 µM [inhibitor, partial curve] | –
10 | COc1cc(OC)cc(C(=O)NCC2CCCN(Cc3cccc(C(C)=O)c3)C2)c1 (centres undefined) | – | inactive: -11.3%
11 | C[C@H](NS(=O)(=O)c1ccccc1F)C(=O)OCC(=O)N1CCc2ccccc21 | – | inactive: -5.74%
12 | CCN1CCN(c2ccccc2NC(=O)c2ccc(-n3cccn3)cc2)CC1 | inconclusive: 29.1 µM [inhibitor, single point] | –
13 | COC(=O)c1ccccc1S(=O)(=O)N1CCC(c2nc3ccccc3o2)CC1 | – | inactive: -20.1%
14 | Cc1ccc(S(=O)(=O)N(CC(=O)Nc2ccccc2-c2ccccc2)c2ccc(C)cc2C)cc1 | inconclusive: 18.4 µM [inhibitor, single point] | –
15 | COc1cccc(NC(=O)c2ccc(CN3CCc4ccccc4C3)cc2)c1 | active: 16.4 µM | –
16 | COc1ccccc1CNc1ncnc2ccc(-c3c(C)noc3C)cc12 | inconclusive: 25.9 µM [inhibitor, single point] | –
17 | CCN(CC(=O)Nc1c(F)cccc1F)C(=O)c1cc2ccccc2oc1=O | – | inactive: -2.28%
18 | Cc1cc2c(cc1C)CSC(c1c(O)ccc3ccccc13)SC2 | inconclusive: 29.1 µM [inhibitor, single point] | –
19 | CCN(CC)CCNC(C(=O)Nc1cc(C(F)(F)F)ccc1Cl)c1ccccc1 (centres undefined) | inconclusive: 20.6 µM [inhibitor, single point] | –
20 | COc1ccc2c(c1)CCc1c(C(=O)N3CCCCCC3)noc1-2 | – | inactive: -8.15%
21 | CC(C)CN(C(=O)c1ccc(Br)o1)C1CCS(=O)(=O)C1 (centres undefined) | – | inactive: 0.723%
22 | Oc1ccc(C2CNCCc3c2cc(O)c(O)c3Cl)cc1 (centres undefined) | inactive and inconclusive: 33.5 µM [inhibitor, single point] | –
23 | c1ccc(Cn2nnnc2C(c2ccncc2)N2CCOCC2)cc1 (centres undefined) | – | inactive: -11.7%
24 | Cn1cnnc1SCNC(=O)C(F)(F)F | – | inactive: -3.6%
25 | CC(=O)c1ccc(C(=O)Nc2ccc(N3CCOCC3)cc2)cc1 | – | inactive: 9.62%

Row | SMILES | Potency | activity change, negative = growth inhibition
26 | COc1cc(/C=C/C(=O)OCC(=O)NCc2ccco2)ccc1O | active: 20.6 µM | –
27 | CCOC(=O)N1CCN(C(=O)CSCc2ccc(C)cc2)CC1 | – | inactive: -17.8%
28 | O=C(CN1C(=O)COc2ccc(S(=O)(=O)Nc3ccccc3)cc21)NCc1ccccc1Cl | inconclusive: 18.4 µM [inhibitor, partial curve] | –
29 | O=C(NCCCN1CCOCC1)c1ccc(-n2nc(C(F)(F)F)cc2-c2cccs2)cc1 | active: 18.4 µM | –
30 | COc1ccc(NC(=O)Cn2c(=O)n(CCc3ccccc3)c(=O)c3sc4ccccc4c32)cc1 | – | inactive: -13.5%
31 | COC(=O)C1=C(C)NC(C)=C(C(=O)OC)C1c1ccc(-c2cccc(Cl)c2Cl)o1 | inconclusive: 29.1 µM [inhibitor, single point] | –
32 | Cc1cc(C)nc(-n2nc(C)c3c2NC(=O)CC3c2ccccc2OC(C)C)n1 (centres undefined) | active: 16.4 µM | –
33 | O=C(CSc1nc2c(c(=O)[nH]1)CN(Cc1ccc(F)cc1)CC2)Nc1cccc(C(F)(F)F)c1 | inconclusive: 29.1 µM [inhibitor, single point] | –
34 | O=C1Nc2ccccc2N(O)N1c1ccc(S(=O)(=O)N2CCOCC2)cc1 | – | inactive: -1.07%
35 | CCNC(=S)NNC(=O)C(c1ccccc1)c1ccccc1 | – | inactive: 1.07%
36 | COc1ccc(CCNc2nc(SCc3ccccc3Cl)nc3ccccc23)cc1OC | active: 8.2 µM | –
37 | CCOC(=O)c1ccc(N2C(=O)c3[nH]nc(-c4ccccc4)c3C2c2cccs2)cc1 (centres undefined) | active: 23.1 µM | –
38 | COc1ccc(CCNC(=O)COC(=O)Cn2cnc3c2c(=O)n(C)c(=O)n3C)cc1 | – | inactive: 4.93%
39 | O=C(c1ccccc1Cc1ccccc1)N1CCN(S(=O)(=O)c2ccccc2F)CC1 | inconclusive: 9.2 µM [inhibitor, partial curve] | –
40 | Fc1ccc(CNC(=S)Nc2ccc(Cl)cc2Cl)cc1 | inconclusive: 16.4 µM [inhibitor, single point] | –
41 | Nc1c(C(=O)NCC2CCCO2)c2nc3ccccc3nc2n1/N=C/c1ccncc1 (centres undefined) | active: 8.2 µM | –
42 | CC1Cc2ccccc2N1S(=O)(=O)c1cccc(C(=O)NCCCO)c1 (centres undefined) | – | inactive: -28%
43 | COc1ccccc1NC(=O)c1cc(C(=O)Nc2ccccc2OC)n(C)n1 | inconclusive: 29.1 µM [inhibitor, single point] | –
44 | COc1cc2c(cc1OC)CN(C(=O)c1cc(S(=O)(=O)N3CCOCC3)ccc1Cl)CC2 | inconclusive: 20.6 µM [inhibitor, partial curve] | –
45 | CC1CCCCN1CC(=O)Nc1ccc(N2CCCCCC2)cc1 (centres undefined) | inconclusive: 25.9 µM [inhibitor, single point] | –
46 | CC(=O)Nc1ccccc1C(=O)N1CCN(c2cccc(C)c2C)CC1 | – | inactive: -28.1%
47 | Cc1cccc(NC(=O)C2CC(=O)n3cnnc3S2)c1 (centres undefined) | active: 4.61 µM | –
48 | CCc1ccc(NC(=O)c2c(Cl)nc(C)c(Cl)c2C)cc1 | inconclusive: 18.4 µM [inhibitor, single point] | –
49 | O=C(Nc1cc(Cl)cc(Cl)c1)N1CCCC1 | inconclusive: 29.1 µM [inhibitor, single point] | –
